Hit rate of the full screen: of about 120,000 compounds, about 5,300 (4.4%) were called active. This list was built around the results that the source calls inconclusive (neither active nor inactive); the mix of calls is not that of the screen. Calls come from the whole dose curve; as a rule, active = well fitted inhibition curve with a large enough effect; inconclusive = small, poorly fitted or top-dose-only effect; inactive = no such curve, though single readings can be large or run the other way. Where the call is inconclusive, the potency comes from a doubtful curve fit.
experiment: qHTS Primary assay for Inhibitors of Plasmodium falciparum Dd2 growth in vitro; note: nearly all actives have a fitted effect of over 65% in size;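 for activity, negative = inhibition: plate controls were DMSO vehicle for no effect and reference drug for full effect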; conditions: P. falciparum Dd2 growth, SYBR Green, 72 h; activity, negative = inhibition: at 28.9 µM (top of the series) unless noted; series mostly up to 28.9 µM
In short: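 Infected erythrocytes (Dd2, 0.3% parasitemia, 2.5% hematocrit final) are added to compound in RPMI-1640/Albumax II medium, grown 72 h at 37C in low oxygen, then lysed with saponin/Triton-X containing SYBR Green and read by fluorescence.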
Potency is the fitted concentration of half-maximal effect; tags give direction and shape of the fitted curve.

| SMILES | Potency | activity, negative = inhibition | outcome |
| --- | --- | --- | --- |
| Cc1noc(-c2ccn3c(CNC(=O)c4ccncc4)nnc3c2)n1 | inconclusive: 0.282 µM [inhibitor, full curve, poor fit] | – | – |
| O=C(NCC(c1cccnc1)N1CCN(Cc2ccccc2)CC1)C(=O)Nc1cccc(Cl)c1 (configuration not stated) | active: 3.98 µM | – | – |
| CCC1(N2CCN(S(=O)(=O)c3cc(F)cc(F)c3)CC2)CCN(S(C)(=O)=O)C1 (configuration not stated) | – | inactive: -15.9% | – |
| CCCN1CCN(CCCNC(=O)C(CC)n2nc(C)n3c(cc4occc43)c2=O)CC1 (configuration not stated) | – | inactive: 19% | – |
| COc1cccc(NC(=O)c2cc3c(-c4ccc(Cl)cc4)nn(C)c3s2)c1 | active: 3.16 µM | – | – |
| O=C(O)C1=NOC2CN(Cc3ccc(C(F)(F)F)cc3)CC12 (configuration not stated) | – | inconclusive: -58.1% [inhibitor] | – |
| CC1(C)[C@H](Cc2cc(COc3ccccc3)on2)C[C@@H]1NC(=O)COc1ccccc1 | active: 8.91 µM | – | – |
| COc1ccc(CCNc2nc3cc(OC)c(OC)cc3c3nc(-c4ccccc4)nn23)cc1OC | inconclusive: 0.0708 µM [inhibitor, full curve, poor fit] | – | – |
| Cc1cnc(CN2CCC3(CCC(=O)N(CCCO)C3)CC2)[nH]1 | inconclusive: 3.16 µM [inhibitor, single point] | – | – |
| Cc1cccc(N2CCN(c3ncnc4c3nc3n4CCCCC3)CC2C)c1 (configuration not stated) | inconclusive: 11.2 µM [inhibitor, single point] | – | – |
| CNC(=O)N1CCc2c(sc3ncnc(NCCCOC)c23)C1 | inconclusive: 11.2 µM [inhibitor, partial curve, poor fit] | – | – |
| CCN1C(=O)c2ccccc2S(=O)(=O)c2ccc(C(=O)NCc3ccc(OC)cc3)cc21 | inconclusive: 11.2 µM [inhibitor, single point] | – | – |
| O[C@@H]1CO[C@H]2[C@@H]1OC[C@@H]2n1nnnc1Sc1ccccc1 | – | – | inactive [at 44.1 µM] |
| COc1ccc(NC(=O)Nc2cccc(-c3ccc(N4CCCCC4)nn3)c2)c(OC)c1 | inconclusive: 17.8 µM [inhibitor, single point] | – | – |
| CC(C)CNc1ccc2c(n1)C(C)(C(=O)N1CCOCC1)CN(Cc1ccccc1)C2 (configuration not stated) | inconclusive: 2.24 µM [inhibitor, full curve, poor fit] | – | – |
| N#Cc1ccc(CN2CCCCCCNC(=O)CC2)cc1 | inconclusive: 20 µM [inhibitor, single point] | – | – |
| Cc1ccccc1OCC(=O)N1C[C@@H]2CCN(C)C[C@]2(C(=O)O)C1 | – | inactive: 6.61% | – |
| Cc1ccc2c(CNCc3ccc(C)o3)c(C(=O)O)n(Cc3ccc(F)cc3)c2c1 | inconclusive: 10 µM [inhibitor, single point] | – | – |
| O=C(O)C1CC2(CCN(C(=O)CCCn3ccnc3)CC2)CN1 (configuration not stated) | – | inactive: -5.29% | – |
| OCc1ccc(CN2CC[C@@H](c3ccc4ccccc4c3)[C@H](O)C2)o1 | – | inactive: -20.3% | – |
| Cc1ccc(C(=O)Oc2cc(-c3ccc4c(c3)OCO4)cc(=O)c3c(C)oc(C)c23)cc1 | inconclusive: 10 µM [inhibitor, single point] | – | – |

| SMILES | Potency | activity, negative = inhibition | outcome |
| --- | --- | --- | --- |
| CC(=O)c1ccc(NS(=O)(=O)c2ccc(-n3cccn3)cc2)cc1 | – | inactive: 2.01% | – |
| CSc1cccc(NC(=O)c2ccc3c(c2)N(C)C2CCCCN2C3=O)c1 (configuration not stated) | inconclusive: 3.98 µM [inhibitor, partial curve, poor fit] | – | – |
| CCn1ccc(C(=O)NC2CCN(c3cc(-c4ccccc4)[nH]n3)CC2)n1 | inconclusive: 2.51 µM [inhibitor, full curve, poor fit] | – | – |
| COCCN1CCC2(CCC1=O)CCN(C(=O)Nc1cccc(Br)c1)CC2 | inconclusive: 17.8 µM [inhibitor, single point] | – | – |
| COc1cccc(-c2cc(C3CCN(C(=O)Nc4ccc5c(c4)OCCO5)CC3)[nH]n2)c1 | inconclusive: 3.98 µM [inhibitor, single point] | – | – |
| O=C(Cc1ccccc1)Nc1sc2c(c1C(=O)Nc1ccc(Br)cc1)CCCC2 | inconclusive: 17.8 µM [inhibitor, single point] | – | – |
| CCc1nc(-c2c3n(c(=O)n(CCCOc4ccc(F)cc4)c2=O)CCCC3)no1 | – | inactive: -12.8% | – |
| CNC(=O)CCn1ncc2cc(OCc3ccccc3-c3cccc(NC(C)=O)c3)ccc21 | inconclusive: 17.8 µM [inhibitor, single point] | – | – |
| COCCCn1c(-c2ccc(S(=O)(=O)N3CCOCC3)cc2)csc1=Nc1ccccc1 | inconclusive: 17.8 µM [inhibitor, single point] | – | – |
| CC1(c2ccc(Cl)cc2)CC(C)(C)N(C(=O)c2cccc(F)c2)c2ccccc21 (configuration not stated) | inconclusive: 15.8 µM [inhibitor, single point] | – | – |
| NC(=O)C1(c2nc(COc3ccccc3)nn2-c2ccc3c(c2)OCO3)CC1 | – | inactive: 11.7% | – |
| Cc1ccc(C2Cn3nnc(C(=O)N4CCC(C(=O)NC(C)c5ccc(F)cc5)CC4)c3CO2)cc1 (configuration not stated) | – | – | inactive |
| O=C(NCCN1CCCCC1)c1ccc(Cn2c(SCc3ccccc3)nc3cccnc32)cc1 | active: 5.01 µM | – | – |
| Cc1nn(-c2cccc(Br)c2)c(C)c1[C@@H]1C=C[C@@H](NCc2cccc(C#N)c2)C1 | inconclusive: 3.98 µM [inhibitor, single point] | – | – |
| COc1ccc(CNC(=O)c2cc3sccc3n2Cc2ccc(C)cc2)cc1 | inconclusive: 12.6 µM [inhibitor, partial curve, poor fit] | – | – |
| Cc1cc(CN2CCC(N3CCNC3=O)CC2)no1 | – | inactive: 10.8% [at 44.1 µM] | – |
| O=C(Nc1ccccc1)N1CCOC(CN(C(=O)c2ccco2)C2CCCC2)C1 (configuration not stated) | inconclusive: 1.41 µM [inhibitor, partial curve, poor fit] | – | – |
| COc1ccc(-c2cnc3[nH]cc(CC(=O)NC4CCC(O)CC4)c3c2)cc1 (configuration not stated) | inconclusive: 2.82 µM [inhibitor, partial curve, poor fit] | – | – |
| O=C(c1ccsc1)N1CCC(Oc2cccc(F)c2)C1 (configuration not stated) | inconclusive: 3.55 µM [inhibitor, partial curve, poor fit] | – | – |
| Cc1ccc(C)c(NC(=O)Cn2c(=O)n(-c3ccccc3)c(=O)c3c2cc(C)n3C)c1 | – | inactive: 28.7% | – |
| O=C(NCCC1CCN(C(=O)Nc2cc(F)cc(F)c2)CC1)c1ccc(F)cc1 | inconclusive: 3.55 µM [inhibitor, single point] | – | – |
